# Measurements as given in the supplement of paper PMC8728848.
# The other results are listed elsewhere or left out.
# B1: Gal 8 (Mus musculus), Q9JL15 (protein)
# chain: MGGSHHHHHHGMASMLSLNNLQNIIYNPIIPYVGTITEQLKPGSLIVIRGHVPKDSERFQVDFQLGNSLKPRADVAFHFNPRFKRSSCIVCNTLTQEKWGWEEITYDMPFRKEKSFEIVFMVLKNKFQVAVNGRHVLLYAHRISPEQIDTVGIYGKVNIHSIGFRFSSASALPHTLGDLQSMETSALGLTQINRENIQKPGKLQLSLPFEARLNASMGPGRTVVIKGEVNTNARSFNVDLVAGKTRDIALHLNPRLNVKAFVRNSFLQDAWGEEERNITCFPFSSGMYFEMIIYCDVREFKVAINGVHSLEYKHRFKDLSSIDTLSVDGDIRLLDVRSW
# Columns and labels:
# Assay in all cases: glycan array binding signal (z-score within array); higher = stronger binding
# Conditions in all cases: glycan notation: IUPAC condensed, linker removed
# [1] = biological target: Fuc(a1-2)Gal(b1-4)GlcNAc(b1-3)Gal(b1-4)GlcNAc(b1-2)Man(a1-3)[Fuc(a1-2)Gal(b1-4)GlcNAc(b1-3)Gal(b1-4)GlcNAc(b1-2)Man(a1-6)]Man(b1-4)GlcNAc(b1-4)GlcNAc
# How it was run: (§1)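 Columns mapping to the same glycan were averaged after glycan names were converted to IUPAC-condensed notation. The data come from 3228 arrays in the Consortium for Functional Glycomics database, limited to those with an available protein sequence. Binding is reported as a within-array Z-score averaged across arrays of one protein sequence and across linkers.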
# [2] = biological target: Fuc(a1-2)Gal(b1-4)GlcNAc(b1-3)Gal(b1-4)GlcNAc(b1-3)Gal(b1-4)GlcNAc
# How it was run: as §1
# [3] = biological target: Fuc(a1-2)Gal(b1-4)GlcNAc(b1-3)GalNAc
# How it was run: as §1
# [4] = biological target: Fuc(a1-2)Gal(b1-4)GlcNAc(b1-3)[Fuc(a1-2)Gal(b1-4)GlcNAc(b1-6)]GalNAc
# How it was run: as §1
# [5] = biological target: Fuc(a1-2)Gal(b1-4)GlcNAc(b1-3)[Fuc(a1-3)[Gal(b1-4)]GlcNAc(b1-6)]Gal(b1-4)Glc
# How it was run: as §1
# [6] = biological target: Fuc(a1-2)Gal(b1-4)GlcNAc(b1-6)GalNAc
# How it was run: as §1
# [7] = biological target: Fuc(a1-2)Gal(b1-4)GlcNAc6S
# How it was run: as §1
# [8] = biological target: Fuc(a1-2)Gal(b1-4)[Fuc(a1-3)]GlcNAc
# How it was run: as §1
# [9] = biological target: Fuc(a1-2)Gal(b1-4)[Fuc(a1-3)]GlcNAc(b1-2)Man(a1-3)[Fuc(a1-2)Gal(b1-4)[Fuc(a1-3)]GlcNAc(b1-2)Man(a1-6)]Man(b1-4)GlcNAc(b1-4)[Fuc(a1-6)]GlcNAc
# How it was run: as §1
# [10] = biological target: Fuc(a1-2)Gal(b1-4)[Fuc(a1-3)]GlcNAc(b1-2)[Fuc(a1-2)Gal(b1-4)[Fuc(a1-3)]GlcNAc(b1-4)]Man(a1-3)[Fuc(a1-2)Gal(b1-4)[Fuc(a1-3)]GlcNAc(b1-2)Man(a1-6)]Man(b1-4)GlcNAc(b1-4)GlcNAc
# How it was run: as §1
# [11] = biological target: Fuc(a1-2)Gal(b1-4)[Fuc(a1-3)]GlcNAc(b1-3)Gal(b1-4)[Fuc(a1-3)]GlcNAc
# How it was run: as §1
# [12] = biological target: Fuc(a1-2)Gal(b1-4)[Fuc(a1-3)]GlcNAc(b1-3)Gal(b1-4)[Fuc(a1-3)]GlcNAc(b1-3)Gal(b1-4)[Fuc(a1-3)]GlcNAc
# How it was run: as §1
# [13] = biological target: Fuc(a1-2)Gal(b1-4)[Fuc(a1-3)]GlcNAc(b1-3)GalNAc
# How it was run: as §1
# [14] = biological target: Fuc(a1-2)Gal(b1-4)[Fuc(a1-3)]GlcNAc(b1-3)[Neu5Ac(a2-6)Gal(b1-4)GlcNAc(b1-6)]Gal(b1-4)Glc
# How it was run: as §1
# [15] = biological target: Fuc(a1-2)Gal3S(b1-4)GlcNAc
# How it was run: as §1
# [16] = biological target: Fuc(a1-2)Gal6S(b1-3)GlcNAc
# How it was run: as §1
# [17] = biological target: Fuc(a1-2)Gal6S(b1-3)GlcNAc6S
# How it was run: as §1
# Fuc(a1-2)Gal6S(b1-4)Glc = biological target: Fuc(a1-2)Gal6S(b1-4)Glc
# How it was run: as §1
# [18] = biological target: Fuc(a1-2)Gal6S(b1-4)Glc6S
# How it was run: as §1
# Fuc(a1-2)[Gal(a1-3)]Gal = biological target: Fuc(a1-2)[Gal(a1-3)]Gal
# How it was run: as §1
# [19] = biological target: Fuc(a1-2)[Gal(a1-3)]Gal(b1-3)GalNAc
# How it was run: as §1
# [20] = biological target: Fuc(a1-2)[Gal(a1-3)]Gal(b1-3)GalNAc(b1-3)Gal(a1-4)Gal(b1-4)Glc
# How it was run: as §1
# [21] = biological target: Fuc(a1-2)[Gal(a1-3)]Gal(b1-3)GlcNAc
# How it was run: as §1
# [22] = biological target: Fuc(a1-2)[Gal(a1-3)]Gal(b1-3)GlcNAc(b1-2)Man(a1-3)[Fuc(a1-2)[Gal(a1-3)]Gal(b1-3)GlcNAc(b1-2)Man(a1-6)]Man(b1-4)GlcNAc(b1-4)GlcNAc
# How it was run: as §1
# [23] = biological target: Fuc(a1-2)[Gal(a1-3)]Gal(b1-3)GlcNAc(b1-2)Man(a1-3)[Fuc(a1-2)[Gal(a1-3)]Gal(b1-3)GlcNAc(b1-2)Man(a1-6)]Man(b1-4)GlcNAc(b1-4)[Fuc(a1-6)]GlcNAc
# How it was run: as §1
# [24] = biological target: Fuc(a1-2)[Gal(a1-3)]Gal(b1-3)GlcNAc(b1-3)GalNAc
# How it was run: as §1
# [25] = biological target: Fuc(a1-2)[Gal(a1-3)]Gal(b1-3)GlcNAc(b1-6)GalNAc
# How it was run: as §1
# [26] = biological target: Fuc(a1-2)[Gal(a1-3)]Gal(b1-4)Glc
# How it was run: as §1
# [27] = biological target: Fuc(a1-2)[Gal(a1-3)]Gal(b1-4)GlcNAc
# How it was run: as §1
# [28] = biological target: Fuc(a1-2)[Gal(a1-3)]Gal(b1-4)GlcNAc(b1-2)Man
# How it was run: as §1
binder,measurement,setting,value
B1,glycan array binding signal (z-score),[1],1.28
same,glycan array binding signal (z-score),[2],0.901
same,glycan array binding signal (z-score),[3],-0.216
same,glycan array binding signal (z-score),[4],0.31
same,glycan array binding signal (z-score),[5],0.097
same,glycan array binding signal (z-score),[6],0.668
same,glycan array binding signal (z-score),[7],-0.038
same,glycan array binding signal (z-score),[8],-0.54
same,glycan array binding signal (z-score),[9],-0.529
same,glycan array binding signal (z-score),[10],-0.525
same,glycan array binding signal (z-score),[11],-0.515
same,glycan array binding signal (z-score),[12],-0.464
same,glycan array binding signal (z-score),[13],-0.499
same,glycan array binding signal (z-score),[14],-0.445
same,glycan array binding signal (z-score),[15],-0.557
same,glycan array binding signal (z-score),[16],-0.543
same,glycan array binding signal (z-score),[17],-0.517
same,glycan array binding signal (z-score),Fuc(a1-2)Gal6S(b1-4)Glc,-0.534
same,glycan array binding signal (z-score),[18],-0.54
same,glycan array binding signal (z-score),Fuc(a1-2)[Gal(a1-3)]Gal,-0.527
same,glycan array binding signal (z-score),[19],0.224
same,glycan array binding signal (z-score),[20],0.456
same,glycan array binding signal (z-score),[21],3.88
same,glycan array binding signal (z-score),[22],3.71
same,glycan array binding signal (z-score),[23],1.22
same,glycan array binding signal (z-score),[24],1.49
same,glycan array binding signal (z-score),[25],1.5
same,glycan array binding signal (z-score),[26],2.26
same,glycan array binding signal (z-score),[27],3.76
same,glycan array binding signal (z-score),[28],2.84
